This is an account of results in the RNAGym collection of RNA variant scans (doi:10.7554/elife.90254).

The labels stand for the following.
B1: LINE1-mini (parent)
chain: GGCAGAGCUCAACACAGCGUGGCAAAGUGGCUGUGGCUAGACUGCC

Read counts are not given, so values of variants with three or more changes are uncertain.

In the data set the parent is B1. The experiment in a line: self-cleavage, relative activity (ratio to wild type); higher = more cleavage; in vitro, sequencing; the parent is a self-cleaving ribozyme.
As for C10A A11U G36C, the self-cleavage turned out to be 0.02.

On to C10A G22C G29C, for which the self-cleavage was 0.03. As for U9G G22U A24U U32A C37U C45U, the figure is 0.05; as for C10A G30C G33U, 0.07; as for C10A G19A U34A, 0.06.

For C10A A24G G27U U28G G33U C45A, the self-cleavage worked out at 0.01.

As to C10A G30U U43A G44C, the self-cleavage was determined as 0.03. For the variant C10A G35C G36U, the self-cleavage worked out at 0.

As to C10A G30U C46A, the self-cleavage is 0.03. As for C10A A16C U28A C31G U34G G35U, the figure is 0; as for C10A G27C G33A G35U, 0.02; as for C10A G19A U28G A39U, 0.15.

C10A A24U G33U: the self-cleavage stood at 0.

For the variant C10A G30C G44U, the self-cleavage was determined as 0.08. As for C10A C13U C23A G30U C31A U32A, the figure is 0.02. Take C10G A11U C13G C18A U20C G22U: the self-cleavage amounted to 0.02. As to U9G C31U G35U, the self-cleavage was 0.02.

Turning to C10A C13A G30U, the self-cleavage was 0.04. As for C10A C13A G30C, the self-cleavage was found to be 0.

With U9G G19U U20G G35U, the self-cleavage came out at 0.06. As for C10A C23A U38G, the self-cleavage came to 0.07. Next, C10A C13U C15U A26G: 0.02. On to U9G G17A G36A C46U, for which the self-cleavage was 0.05. As for U9G C15U A25U U32A, the figure is 0.1; as for C10A A12G C13U C18U, 0.04. In the case of C10A G33A G44U, the self-cleavage amounted to 0.03.

Consider U9G G19U U20G C45U, for which the self-cleavage was 0.09. As for U9G C15A A16U, the figure is 0.04; as for C10A A16G U32C C42U G44A, 0.01; as for C10A G36C G40A, 0.06. Next, C10G A11G G30A C37A: 0.01; C10A A12C U43G G44A C45A: 0. As for C10G A11C G30A C42U, the figure is 0.01; as for C10A C23U A25U G35U, 0.01; as for C10A G17C C31A, 0.05. Take U9G G30U C31U U32A: the self-cleavage stood at 0.02. As for C10G A11C C13A G36A A39G, the figure is 0.02; as for U9G U28A C42G C45U, 0.06. For the variant C10A A12C A16G, the self-cleavage was determined as 0.03. On to U9G C15G A24C, for which the self-cleavage amounted to 0.17. As for U9G C15G A24U, the figure is 0.07; as for C10A C23U G35C G36A, 0.02; as for C10A A39C U43C, 0.02. On to C10A C13A C23G, for which the self-cleavage came to 0.02. As for C10A C18G C37G, the figure is 0.02. Next, U9G C18A U20C: 0.05; C10A C23U G33U: 0.03. As to U9G G21U G40A, the self-cleavage is 0.03. Take C10A A26G C46G: the self-cleavage was found to be 0.03. In the case of C10A A14G C23A A24G, the self-cleavage came to 0.02.

In the case of C10A A11C C42G, the self-cleavage turned out to be 0.04. As for U9G G19C C23G G27U, the figure is 0.04. With C10A A24G C46A, the self-cleavage came out at 0.03. Regarding C10G A11C C31G, the self-cleavage was 0.02. Next, U9G G21U A25U: 0.09.

Regarding U9G G17U G27C, the self-cleavage was 0.01. Turning to C10A A16C U43C, the self-cleavage turned out to be 0.03.

In the case of C10A G33C U34A, the self-cleavage stood at 0.02. Next, C10A U28A C45A: 0.01; C10A C18A G19A G22A C23G A24C A26U G27C C45A: 0.01; U9G C18G G33C: 0.11. Next, C10A G21U A25C A26G: 0.07; U9G G17A G40U: 0.01.

Consider C10A G22C G29U U38C A39U, for which the self-cleavage was found to be 0.18. Next, C10A C18G U20G: 0.01; C10A A14C A25U: 0.01; C10G A11C G33A: 0.05.

On to C10A U20G U43A, for which the self-cleavage is 0. As to U9G U38C G44U, the self-cleavage turned out to be 0.05. Next, C10A G19U G33C U43A: 0.02; U9G G17C U32G G36C A41U: 0.04. Next, C10A U20C U32A A39C: 0.02; C10A G19C A26U U32C: 0.03. Consider U9G G40C U43C C45G, for which the self-cleavage is 0.04. Next, C10A A14C C15U C18U G19U G35C: 0.01.

As for C10A C18A G21U G30A G33U, the self-cleavage came to 0. As for C10A G40U C45A, the figure is 0.02; as for C10A G40U C45U, 0.02; as for U9G G27A U28G C45U, 0.14. As for U9G G17C A39C, the figure is 0.01; as for U9G G35A U43G, 0.02. On to U9G G21C G22A G44U, for which the self-cleavage is 0.07.

As to U9G G21C C23A, the self-cleavage was 0.04. As for C10A G17C G21U A25G C46U, the figure is 0.03; as for C10A G19A C46U, 0.05; as for C10A A12C G21U A24G C37A, 0. Next, C10A C15U A16C G17A C46A: 0.02; C10A A11C G29U: 0.04; U9G G17C G36U: 0.02. For C10A A14U C15A U20C G40U C42U C46A, the self-cleavage was found to be 0.04. Take C10G A11U C13A: the self-cleavage was determined as 0. As for C10A A16G C18A U28A C31G G35C, the figure is 0.02; as for C10A G19U C45A, 0.03. As for C10A A12U G22U A24G A26C, the self-cleavage is 0.01. Next, C10A G19C U20G G22C A39U: 0.02; C10A G22A A26U A41C: 0.02. For U9G C15A A25G G40A, the self-cleavage is 0.02.

As for C10A G27U C37U C46G, the self-cleavage was 0.01. Next, C10A C15U C37G C42A: 0.28. For C10A C18U G35C U38C, the self-cleavage worked out at 0.02. In the case of U9G C37U C46A, the self-cleavage was 0.08. On to C10A G21U C23U C46A, for which the self-cleavage came out at 0.5. With C10A U34A G44C, the self-cleavage came out at 0.02. As for U9G U32C G44A, the figure is 0.08; as for C10A G21A G30U, 0.12. Take C10A A25G G36A: the self-cleavage was determined as 0.02. Consider U9G C23U A24C A25C, for which the self-cleavage is 0.01.

For U9G C13U U20A G30A, the self-cleavage turned out to be 0.14. Turning to C10A C31A U38G A39G, the self-cleavage stood at 0.02. As for U9G U28G G29C C42G, the figure is 0.01. Consider C10A C37A G40A, for which the self-cleavage amounted to 0. For C10A A14U A41C, the self-cleavage amounted to 0.02. As for C10A G22U G29C U32C, the figure is 0.04; as for C10A U20G G22C A41C G44A, 0.01.

Regarding C10A A26U C46A, the self-cleavage is 0.05. Turning to C10A U28C U38C, the self-cleavage amounted to 0.07. As for C10G A11C C13U C18A G36U, the figure is 0.02.

On to C10A G22C G33A, for which the self-cleavage stood at 0.03.

Consider C10G A11U C18U, for which the self-cleavage worked out at 0.01.

In the case of C10A C13U G17A, the self-cleavage turned out to be 0.03. Take C10A C42A G44A: the self-cleavage was 0.01.

For C10A A14U A26U G27A, the self-cleavage turned out to be 0.1. As for C10A G29A C42G, the figure is 0.01. Regarding C10A G17A A25C U34C A41C, the self-cleavage came out at 0.1. In the case of C10A A24G A26U A39U, the self-cleavage was 0.28. Turning to C10A G27C C31G G40C A41U U43G C45U, the self-cleavage stood at 0.01. As for C10A C31A A39G, the figure is 0.01. As for C10A A12G A16C C45U, the figure is 0.01; as for C10A A11G G35U, 0.01.

As to C10A A26U U43C, the self-cleavage amounted to 0.02. Next, C10A A14U G29C: 0.01. As for U9G U43C G44A, the figure is 0.06; as for U9G C18A G40C, 0; as for C10A C13G G17A, 0.04. As to C10A U20G G40U G44U, the self-cleavage is 0.01. As for C10A C15A C18G A24C, the figure is 0; as for C10A A12C G21C G22C U28G A39U, 0; as for U9G C18A G33U U34A, 0.04.

As for C10A G36C U38G, the self-cleavage was determined as 0.01.

Take U9G U34G G44U: the self-cleavage was 0.02. As for U9G G29A A41U, the figure is 0.11; as for C10A A12C G19U U32A C46G, 0.01. Next, C10A A12G G35U: 0.01; C10A C23U G30A: 0.04. Consider C10A A25U G30U U32A, for which the self-cleavage came to 0.04. In the case of C10A A14G C18U U28G, the self-cleavage was 0.01. Next, C10A A11C C15U U38G: 0.01; C10A A16G C45U: 0.02; C10A G17A A24G G40C: 0.02. As for U9G G33C C37G, the figure is 0.11; as for C10A U20A C23A G44A C45U, 0.

In the case of C10A G21C C31G, the self-cleavage was found to be 0.03.

On to C10A A11U U34C, for which the self-cleavage was 0.03. In the case of C10A G19U G22U A25C U32A, the self-cleavage amounted to 0.01. Next, C10A A14C U28C C45G: 0.01.

C10A G17A A24U: the self-cleavage was found to be 0.02. As for C10A A12C C13U U28C, the figure is 0.01; as for U9G G22A A26U G30C, 0.03; as for U9G C18A G27U, 0.

Take C10A C15U G29U: the self-cleavage came to 0.06. As for C10A C13A U28A G30U U38A U43A, the figure is 0.03; as for C10A A24C A39U, 0.14. Next, C10A U34A C46A: 0.18; C10A A24C A41U C45A: 0.

Consider C10A G17A A24C A25C C37G U38C C46G, for which the self-cleavage came to 0.01. Next, C10A C31A U32C A39C G44A: 0; C10A A16U G17C G22U C37G A41G: 0.
